# Experimental data: the supplement of paper PMC7826260
# The other results are listed elsewhere or left out. The data describe in vitro nicking of single-stranded DNA by Rep domains (3 µM enzyme, 1 h, 37 °C); shown is the middle of each 90-letter strand. A value is the log2 ratio of uncut reads to the pool without enzyme; more negative means more cut, near 0 not cut, and no call is made. Reads are scaled to the total; values above 0 arise when much of the pool is cut.
# Tests used:
# Assay in all cases: uncleaved DNA left, log2 of reads against the no-enzyme library (log2 ratio); higher = less cleavage (more negative = more Rep cleavage of the k-mer); sequences stand for … in CTCGTCCG…ACCGGAGA
# [1] = tested on: T1, Rep nickase domain of Muscovy duck circovirus
# T1 sequence (protein, residues 1-111, tag omitted): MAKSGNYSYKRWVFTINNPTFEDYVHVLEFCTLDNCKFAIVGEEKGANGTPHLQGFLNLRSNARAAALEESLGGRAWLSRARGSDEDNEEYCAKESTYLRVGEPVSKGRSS
# Protocol: (§1)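 A pool of 90-nt single-stranded DNAs with seven random bases just before the constant AC of the nick site (name = the seven bases) was cut by 3 µM recombinant His6-SUMO-tagged Rep nickase domain (300 nM DNA, 50 mM HEPES pH 8.0, 50 mM NaCl, 1 mM MnCl2, 1 h, 37 °C, three replicates). Uncut DNA was amplified and sequenced.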
# [2] = tested on: T2, Rep nickase domain of banana bunchy top virus
# T2 sequence (protein, residues 1-94, tag omitted): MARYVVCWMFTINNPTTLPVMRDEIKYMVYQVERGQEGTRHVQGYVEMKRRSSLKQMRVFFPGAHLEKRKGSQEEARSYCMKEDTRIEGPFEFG
# Protocol: as §1
# [3] = tested on: T3, Rep nickase domain of cabbage leaf curl virus
# T3 sequence (protein, residues 1-116, tag omitted): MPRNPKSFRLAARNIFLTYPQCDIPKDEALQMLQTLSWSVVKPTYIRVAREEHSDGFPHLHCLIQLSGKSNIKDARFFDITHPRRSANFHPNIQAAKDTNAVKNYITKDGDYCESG
# Protocol: as §1
# [4] = tested on: T4, Rep nickase domain of chickpea chlorotic dwarf virus
# T4 sequence (protein, residues 1-124, tag omitted): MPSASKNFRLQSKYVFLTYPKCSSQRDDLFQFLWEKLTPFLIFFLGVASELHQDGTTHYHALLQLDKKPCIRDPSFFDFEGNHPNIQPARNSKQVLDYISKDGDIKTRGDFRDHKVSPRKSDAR
# Protocol: as §1
# [5] = tested on: T5, Rep nickase domain of faba bean necrotic yellows virus
# T5 sequence (protein, residues 1-98, tag omitted): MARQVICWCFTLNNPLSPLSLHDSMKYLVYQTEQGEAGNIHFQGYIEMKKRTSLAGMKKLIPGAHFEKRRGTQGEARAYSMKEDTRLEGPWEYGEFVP
# Protocol: as §1
# [6] = tested on: T6, Rep nickase domain of maize striate mosaic virus
# T6 sequence (protein, residues 1-117, tag omitted): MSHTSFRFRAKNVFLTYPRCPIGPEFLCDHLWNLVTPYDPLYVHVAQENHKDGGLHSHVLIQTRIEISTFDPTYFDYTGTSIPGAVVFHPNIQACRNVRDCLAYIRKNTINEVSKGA
# Protocol: as §1
# [7] = tested on: T7, Rep nickase domain of porcine circovirus 2
# T7 sequence (protein, residues 2-116, tag omitted): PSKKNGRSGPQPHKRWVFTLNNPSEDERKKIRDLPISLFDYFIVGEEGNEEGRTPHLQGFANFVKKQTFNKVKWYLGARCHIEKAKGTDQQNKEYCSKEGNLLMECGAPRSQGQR
# Protocol: as §1
# [8] = tested on: T8, Rep nickase domain of tomato golden mosaic virus
# T8 sequence (protein, residues 1-124, tag omitted): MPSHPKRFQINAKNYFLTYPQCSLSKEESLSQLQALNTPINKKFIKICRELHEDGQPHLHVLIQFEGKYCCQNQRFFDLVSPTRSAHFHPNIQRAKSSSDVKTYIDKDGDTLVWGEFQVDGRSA
# Protocol: as §1
# [9] = tested on: T9, Rep nickase domain of tomato yellow leaf curl virus
# T9 sequence (protein, residues 1-136, tag omitted): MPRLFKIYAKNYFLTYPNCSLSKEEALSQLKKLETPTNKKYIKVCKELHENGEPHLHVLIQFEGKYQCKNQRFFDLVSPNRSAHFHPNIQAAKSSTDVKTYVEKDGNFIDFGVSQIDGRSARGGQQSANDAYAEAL
# Protocol: as §1
# [10] = tested on: T10, Rep nickase domain of wheat dwarf virus
# T10 sequence (protein, residues 1-137, tag omitted): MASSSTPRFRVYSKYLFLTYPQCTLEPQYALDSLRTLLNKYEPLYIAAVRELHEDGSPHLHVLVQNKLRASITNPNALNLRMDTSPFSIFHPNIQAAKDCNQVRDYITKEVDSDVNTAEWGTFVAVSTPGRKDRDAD
# Protocol: as §1
Sequence,uncleaved DNA left (log2) [1],uncleaved DNA left (log2) [2],uncleaved DNA left (log2) [3],uncleaved DNA left (log2) [4],uncleaved DNA left (log2) [5],uncleaved DNA left (log2) [6],uncleaved DNA left (log2) [7],uncleaved DNA left (log2) [8],uncleaved DNA left (log2) [9],uncleaved DNA left (log2) [10]
GAATGTG,0.141,-0.0353,-0.878,-0.301,0.0358,-0.933,0.059,-0.063,0.0801,-0.162
TAGTGCT,-3.13,-3.35,-2.91,-3.05,-2.99,-1.9,-4.07,-0.738,0.0575,-0.286
GTGCTAG,-0.0614,-0.164,-0.417,-0.23,0.0276,-0.796,0.0373,-0.0864,0.0452,-0.103
CATTTTA,-1.01,-1.23,-0.0704,-2.06,0.0865,-0.619,-1.75,0.121,0.133,0.16
ATCGCTC,-0.127,-0.0722,-0.0818,-0.463,-0.0512,-0.923,-0.0258,-0.132,-0.0214,-0.0816
GGTTCTG,-0.0752,-0.0301,0.0445,0.582,-0.118,1.11,-0.0128,-0.123,0.0139,0.0997
GAACGAG,-0.146,-0.105,0.385,0.982,-0.0778,0.568,0.0202,-0.115,0.0283,0.0542
ACAAATT,-0.071,0.00236,-0.258,-2.47,0.00755,-0.752,-0.0765,0.0434,-0.043,-0.0415
GAGAATG,0.048,0.111,0.0451,0.642,-0.0531,1.49,0.138,0.108,-3.41e-05,0.103
TCACCGG,-0.0445,0.0671,0.452,1.39,-0.0557,1.79,0.0355,0.184,-0.0663,0.0796
GTCGCGG,0.043,0.054,0.341,0.772,-0.154,1.21,0.036,0.207,-0.0194,0.107
CTCCAAA,0.0489,-0.00731,0.103,-0.0578,0.0238,-0.663,0.0564,-0.134,0.0224,0.0101
AGCATTT,-0.0376,0.0119,-0.133,-1.67,-0.0793,-0.424,-0.982,-0.0848,0.0157,-0.0814
TTCATCA,0.0256,0.0933,0.436,0.0757,0.00411,0.522,0.0877,0.0992,0.173,0.249
GATTACC,0.00514,0.0144,0.139,-0.982,-0.0557,0.782,-0.654,0.0363,0.109,0.0758
TTTTTCC,0.0433,-0.124,0.136,-0.245,-0.00242,-0.347,-0.0745,-0.171,-0.127,0.0396
AGGTTAT,-0.0152,-0.0357,0.228,0.885,-0.0579,1.38,-1.11,0.0914,-0.0951,-0.0071
TATTCTA,-3.17,-0.993,-0.0725,-2.45,0.00732,-0.435,-2.43,-0.0753,0.0753,-0.144
GGATCTC,-0.0549,-0.0342,0.396,0.898,-0.104,1.64,-0.03,-0.072,0.0156,0.0157
TTAGACA,-0.0242,0.0416,0.459,-0.705,0.141,0.687,0.127,0.0532,0.122,0.138
TACGCCA,0.0133,0.0533,-0.153,-2.05,-0.0689,-0.029,-0.0282,-0.0713,0.0253,0.0448
CAGCGTT,-0.0261,0.0189,-0.281,-1.21,-0.0162,-0.697,-2.66,0.0579,0.0771,-0.0266
AATACTG,-0.0162,0.0283,0.0626,0.695,0.0229,1.3,0.101,0.114,-0.0864,-0.0268
TGAGCAC,0.0056,-0.0188,0.0781,0.372,-0.0136,0.253,0.0619,0.0318,-0.0556,0.0725
GGGGCGC,-0.00905,0.0864,0.766,1.76,-0.0786,2.11,0.175,0.0613,-0.126,0.0403
CCCGCGC,0.128,-0.0402,-0.652,-0.451,-0.0456,-0.551,0.0857,-0.0521,-0.155,-0.034
ATAAGAA,0.16,0.0141,-0.361,-0.797,0.0374,-0.664,0.133,0.0907,0.0247,0.0402
TGGGCTA,-0.0244,0.00354,0.76,1.61,-0.0756,2.04,0.18,-0.101,-0.0535,-0.0269
AAAGTCG,0.0353,0.0548,-0.823,-0.0115,0.138,-0.942,0.152,0.0117,0.089,-0.0677
CGTAATG,0.0321,-0.0196,-0.102,0.499,0.0508,1.02,0.0218,-0.0253,-0.0797,-0.0359
